Laboratory results as given in PubChem BioAssay AID887 (National Center for Advancing Translational Sciences (NCATS), 2007).
Several values for one entry are separate records, joined by “and”; a condition that tells them apart may be missing. Equal values may be shown once. The campaign covered roughly 74,000 compounds. About 1,100 (1.5%) were called active. Inconclusive results, whose numbers are uncertain, are shown with a selection of clear calls. Calls come from the whole dose curve; as a rule, active = well fitted inhibition curve with a large enough effect; inconclusive = small, poorly fitted or top-dose-only effect; inactive = no such curve, though single readings can be large or run the other way. Potencies of inconclusive entries are doubtful fits and often do not repeat.

Target: Polyunsaturated fatty acid lipoxygenase ALOX15 (Homo sapiens) (UniProt P16050)
Assay: qHTS Assay for Inhibitors of 15-hLO (15-human lipoxygenase); note: nearly all actives have a fitted effect of over 55% in size
Settings: purified 15hLO-1, xylenol orange hydroperoxide absorbance; activity change, negative = inhibition: at 57.1 µM (top of the series) unless noted
Excerpt: Assay Overview: NIH Molecular Libraries Screening Centers Network [MLSCN] NIH Chemical Genomics Center [NCGC] MLSCN Grant: MH081283-01A1 PI Name: Holman, T.R., University of California, Santa Cruz Human lipoxygenase 15hLO-1 is a member of the closely related lipoxygenase family of enzymes which catalyze the site-specific oxidation of arachidonic acid to various hormone precursor molecules and as such is a candidate for drug development in a variety of disease areas, such as cancer and inflammation. Inhibition of 15hLO-1 activity was screened by utilizing arachidonic acid as a substrate. The extent of hydroperoxide product formation was measured by a secondary chromogenic reaction in which xylenol orange (XO, Sigma-Aldrich, cat. number 39,818-7) reacts with the ferric ions produced from the reaction between the hydroperoxide and ferrous ions. The Fe(III)-XO complex is characterized with red-shifted absorbance at 560 nm. A purified preparation of human 15hLO-1 was supplied by Professor Ted Holman, University of California, Santa Cruz.
Assay Protocol: Buffer: 25 mM Hepes pH 7.5, 0.01% Triton X-100. Reagents/Controls: Buffer in columns 3 and 4 as negative control (no enzyme). Substrate solution: 50 uM arachidonic acid (Sigma-Aldrich, St. Louis, MO) final concentration dispensed throughout the plate. Enzyme: 40 nM 15hLO-1 final concentration in columns 1, 2, 5-48. Column 1 is neutral (100% activity). Column 2 contained pin-transferred titration of NDGA (nordihidroguaiaretic acid, Sigma-Aldrich, N 5023, top concentration 10 mM in DMSO, then 1:2 dilution in duplicate). (Dilution factor: 23 nL into 4 uL.) Chromogenic detection reagent (divalent iron/xylenol orange, Fe-XO): 200 uM xylenol orange plus 300 uM ferrous ammonium sulfate prepared freshly in 50 mM sulfuric acid. Assay Steps: Three uL of enzyme were dispensed to 1536-well Greiner black clear bottom plates. Compounds and controls (23 nL) were transferred via Kalypsys PinTool. The plates were incubated for 15 min at room temperature, and then 1 uL of substrate solution was added to start the reaction. After room temperature incubation for 6 minutes, 4 uL of Fe-XO solution was added to each well followed by a short spin (1000 rpm, 15 sec) and the plates were then incubated for 30 min. The absorbance at 405 and 573 nm were measured using ViewLux (Perkin-Elmer) High-throughput CCD imager and absorbance protocol settings. The 573-to-405 absorbance ratio was used to compute reaction progress.
% is set by controls: 0 for no effect and ±100 for the full control effect; potency is the fitted concentration of half-maximal effect; tags give direction and shape of the fitted curve.

Chain of UniProt P16050 (P16050 whole entry, looked up): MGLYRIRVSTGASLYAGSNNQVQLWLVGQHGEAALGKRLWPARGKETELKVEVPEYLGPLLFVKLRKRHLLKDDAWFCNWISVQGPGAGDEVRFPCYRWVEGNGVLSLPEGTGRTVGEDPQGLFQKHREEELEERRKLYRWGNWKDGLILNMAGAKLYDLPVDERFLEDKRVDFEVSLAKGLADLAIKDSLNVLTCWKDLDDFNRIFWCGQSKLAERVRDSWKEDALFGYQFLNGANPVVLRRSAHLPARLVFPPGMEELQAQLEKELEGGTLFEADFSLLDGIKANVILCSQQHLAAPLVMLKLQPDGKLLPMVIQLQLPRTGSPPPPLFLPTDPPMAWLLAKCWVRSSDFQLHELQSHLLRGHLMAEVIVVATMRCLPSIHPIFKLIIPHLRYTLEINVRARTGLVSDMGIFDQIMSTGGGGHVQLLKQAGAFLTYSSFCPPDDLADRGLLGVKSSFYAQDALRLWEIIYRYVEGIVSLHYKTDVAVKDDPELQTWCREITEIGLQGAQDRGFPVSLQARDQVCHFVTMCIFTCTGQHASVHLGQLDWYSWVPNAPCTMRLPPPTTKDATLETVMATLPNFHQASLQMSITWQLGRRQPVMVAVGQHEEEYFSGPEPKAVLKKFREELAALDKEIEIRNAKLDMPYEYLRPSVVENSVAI

Structure (SMILES)	Potency	activity change, negative = inhibition
Cc1ccc(-c2nnn(CC(=O)Nc3cccc4cccnc34)n2)o1	inconclusive: 10 µM [inhibitor, partial curve]	
CCOC(=O)c1c(-c2ccc(C)o2)csc1NC(=O)CSc1nnnn1-c1ccccc1	inconclusive: 15.8 µM [inhibitor, partial curve]	
COC(=O)c1ccc(Sc2ccc(C)cc2)c(N)c1	inconclusive: 39.8 µM [inhibitor, single point]	
C=CCn1c(Cc2csc(N)n2)nnc1SCC(=O)OCC		inactive: 11.6%
c1ccc(CCc2ccccc2-c2nc(-c3cccnc3)no2)cc1		inactive: -0.544%
Clc1ccc2[nH]c3c(NCC4CCCO4)ncnc3c2c1 (stereo not drawn)	inconclusive: 31.6 µM [inhibitor, single point]	
Clc1cccc(Nc2nnc(-c3ccccc3)c3ccccc23)c1	inconclusive: 7.94 µM [inhibitor, full curve]	
O=C(CSc1nc2ccccc2c(=O)n1-c1ccccc1)NCc1ccco1		inactive: 7.33%
O=C(CSCc1ccc(Cl)cc1)c1ccco1	active: 31.6 µM	
O=C(Cc1ccc(Cl)c(Cl)c1)OCC(=O)c1ccc[nH]1	inconclusive: 1.58 µM [inhibitor, full curve, poor fit]	
Cc1cc(-n2c(C)cc(C(=O)CN3C(=O)NC4(CCCCCC4)C3=O)c2C)no1		inactive: -28.4%
O=C1CC2CS(=O)(=O)CC2N1c1ccc(Oc2ccccc2)cc1 (stereo not drawn)	inconclusive: 3.16 µM [inhibitor, partial curve]	
COc1ccc(NC(=O)CN2CCCCC2)cc1		inactive: -5.98%
CCOC(=O)CNc1ccc2c(c1)OCO2	active: 2 µM	
Cn1nnnc1SCC(=O)c1ccco1	inconclusive: 39.8 µM [inhibitor, single point]	
O=C(Nc1cc(N2CCOCC2)ncn1)NC1(C(F)(F)F)Oc2ccc(Cl)cc2O1 (stereo not drawn)	active: 5.01 µM	
O=C(CSc1ncn(-c2ccccc2)n1)Nc1nc2ccccc2s1	inconclusive: 25.1 µM [inhibitor, partial curve]	
C=CCC1C=CC(Oc2ccc(OC)cc2)C(COC(=O)c2ccc(Br)cc2)O1 (stereo not drawn)	inconclusive: 1.26 µM [inhibitor, single point]	
O=C(c1ccccc1)C(Sc1ncn[nH]1)c1ccccc1 (stereo not drawn)	inconclusive: 3.16 µM [inhibitor, single point]	
O=S(=O)(c1ccccc1)N1CCC[C@@]2(CCN(c3ncccn3)C2)C1		inactive: 1.43%
O=C(Cn1c(-c2ccccc2)noc1=O)Nc1ccc(N2CCCCCC2)cc1	inconclusive: 15.8 µM [inhibitor, partial curve]	
COc1ccc(NC(=O)N(Cc2cc3cc(OC)ccc3[nH]c2=O)CC2CCCO2)cc1 (stereo not drawn)	active: 20 µM	
CCn1c2ccccc2c2nnc(SCN3C(=O)c4ccccc4C3=O)nc21	inconclusive: 0.158 µM [inhibitor, single point]	
CC1(C)CC(=O)c2cn3c(nc2C1)nc1ccccc13		inactive: -1.47%
N#CC[N+]1(Cc2ccccn2)CCCC1	inconclusive: 0.0063 µM [inhibitor, partial curve]	

Structure (SMILES)	Potency	activity change, negative = inhibition
Nc1ccc(N2CCCCC2)cc1N1CCCCC1	inconclusive: 25.1 µM [inhibitor, single point]	
C=CCn1c(SCC(=O)Nc2ccc3c(c2)OCO3)nnc1-c1cc(Br)ccc1O	inconclusive: 20 µM [inhibitor, partial curve]	
N#CCCN1CCN(C(=S)c2ccc(-c3cc(Cl)ccc3Cl)o2)CC1	inconclusive: 15.8 µM [inhibitor, partial curve, poor fit]	
N#Cc1cccc(-c2nc(NCc3cccnc3)c3ccccc3n2)c1		inactive: -19.9%
O=C(COC(=O)c1ccc[nH]c1=O)c1ccc(Cl)s1		inactive: 2.97%
CCCCN1CCc2c([nH]c3ccc(C)cc23)C1=O		inactive: -9.1%
COc1cc2c(c(OC)c1OC)-c1ccc(OC)c(=O)cc1[C@@H](NC(C)=O)CC2	inactive	
CCOC(=O)c1sc2nc(-c3ccco3)c3c(c2c1N)CC(C)(C)OC3	active: 15.8 µM	
O=C(c1ccc(OCCN2CCCCC2)cc1)c1c(-c2ccc(O)cc2)sc2cc(O)ccc12	inconclusive: 39.8 µM [inhibitor, single point] and inconclusive: 20 µM [inhibitor, single point]	
Cc1nc2cccc([N+](=O)[O-])c2n1CCCN(C)C		inactive: 2.4% [at 11.4 µM]
COc1ccc(-c2nc3cnc(OC)nc3n(-c3ccc(OC)cc3)c2=O)cc1		inactive: -1.2%
CCOC(=O)c1cnn(-c2ncnc3sc(CC)cc23)c1N		inactive: 1.54%
CCCOc1ccc(N2C(=O)CC(N3CCN(c4ccccc4OC)CC3)C2=O)cc1 (stereo not drawn)	inconclusive: 25.1 µM [inhibitor, single point]	
O=C(c1cc2nc(-c3ccco3)cc(C(F)(F)F)n2n1)N1CCN(c2ccc(F)cc2)CC1	inconclusive: 39.8 µM [inhibitor, single point]	
Nc1c(Nc2ccccc2)c2ccccc2oc1=O	inconclusive: 39.8 µM [inhibitor, single point]	
S=C=Nc1cccc(NC(=S)NCCCCNC(=S)Nc2cccc(N=C=S)c2)c1	inconclusive: 25.1 µM [inhibitor, single point]	
CN(C)c1nc2c(Br)c(Br)c(Br)c(Br)c2[nH]1		inactive: -14.9%
CCC(c1nnnn1C(C)(C)CC)N(CCCO)Cc1cc2cccc(C)c2[nH]c1=O (stereo not drawn)	inconclusive: 31.6 µM [inhibitor, partial curve, poor fit]	
Cc1cc(NC(=O)NC2(C(F)(F)F)Oc3ccc(Cl)cc3O2)no1 (stereo not drawn)	inconclusive: 15.8 µM [inhibitor, partial curve]	
Oc1ccccc1C1=Nc2ncnn2C(c2ccc(F)cc2)C1 (stereo not drawn)	inconclusive: 31.6 µM [inhibitor, single point]	
CCOC(=O)C1=C(C)N2C(=C(C#N)[C@@H]1c1ccc(C(=O)OC)cc1)SC[C@@]2(O)C(C)(C)C	inconclusive: 15.8 µM [inhibitor, partial curve]	
c1csc(CNc2ncncc2-c2ccc3c(c2)OCO3)c1	inconclusive: 25.1 µM [inhibitor, single point]	
O=C(c1csnn1)N1CCC2(CCN(Cc3cc(C(F)(F)F)cc(C(F)(F)F)c3)CC2)CC1		inactive: 1.81%
O=C(CCCCCCCCCCCCC1CCCC1)Nc1ccc(S(=O)(=O)c2ccc(NC(=O)CCCCCCCCCCCCC3CCCC3)cc2)cc1	inconclusive: 15.8 µM [inhibitor, partial curve]	
CCCC(=O)Nc1cccc(NC(=O)c2ccc3c(c2)OCCO3)c1		inactive: -1.7%

Structure (SMILES)	Potency	activity change, negative = inhibition
Cc1cc(N)c(NC2=CC(=O)CC(C)(C)C2)cc1C	inconclusive: 12.6 µM [inhibitor, partial curve]	
CC(=O)Nc1cc2c(cc1C(C)=O)OCCO2	inconclusive: 20 µM [inhibitor, partial curve]	
Cc1cc(OCCCn2ccnc2)cc(C)c1Cl		inactive: 17.4% [at 11.4 µM]
COC(=O)N1[C@H](C)C=C[C@]1(Cc1ccccc1)C(=O)NCc1ccc(N(C)C)cc1	active: 20 µM	
COc1ccc2cc3c(N)c(C(=O)NCc4ccco4)sc3nc2c1		inactive: -16%
COc1cc(C(=S)N(C)C)ccc1O	inconclusive: 7.94 µM [inhibitor, full curve]	
O=C(O)c1cc(-c2ccco2)nc2ccc(Br)cc12	inconclusive: 25.1 µM [inhibitor, partial curve]	
O=C(O)c1ccc(NS(=O)(=O)c2ccsc2C(=O)O)c(O)c1		inactive: 15.5%
CCCCCCC#Cc1cc(OC)c(OC)cc1C(N1CC(C)c2ccccc21)N1CC(C)c2ccccc21 (stereo not drawn)	inconclusive: 6.31 µM [inhibitor, partial curve, poor fit]	
CCOc1ccc(N2C(=O)CC(/C=C3/N(C)c4ccccc4C3(C)C)C2=O)cc1 (stereo not drawn)		inactive: -25.3%
O=C(Nc1ccc2nc(-c3ccco3)c(-c3ccco3)nc2c1)N1CCCCCC1	active: 5.01 µM	
CCN1CCCC1CNC(=O)c1cc(S(=O)(=O)CC)c(N)cc1OC (stereo not drawn)	inconclusive: 25.1 µM [inhibitor, single point]	
C(=N\c1nc2ccccc2[nH]1)/c1cccs1	inconclusive: 10 µM [inhibitor, partial curve]	
CCOC(=O)c1c(C)c(C(=O)Nc2ccc(N(C)C)cc2)c(C)n1CC		inactive: -24.3%
COc1ccc2c(c1)C(=O)N(c1ccccc1OC)C(=O)C2(C)C	inconclusive: 3.16 µM [inhibitor, single point]	
CS(=O)(=O)Nc1cccc(-c2cncnc2NCc2ccccc2)c1	inconclusive: 25.1 µM [inhibitor, partial curve]	
CCOC(=O)C(C(C)=O)c1c(Br)c(O)c(O)c2c(C(=O)c3ccc(C)cc3)coc12 (stereo not drawn)	active: 2 µM	
Cc1ccc(NC2=Nc3ccccc3CS2)cc1		inactive: 3.61%
C/C=C/Cn1c(SCCCc2ccccc2)nc2c1c(=O)[nH]c(=O)n2C	inconclusive: 12.6 µM [inhibitor, partial curve]	
CC1=C(/C=C/C(C)=C/C=C/C(C)=C/C=O)C(C)(C)CCC1	inconclusive: 15.8 µM [inhibitor, partial curve, poor fit]	
CCN1CCN(CCCNC(=O)c2csc3c2CCCCC3)CC1	inconclusive: 39.8 µM [inhibitor, single point]	
Cn1c(=O)c2c(nc(CN3CCc4ccccc4C3)n2Cc2ccccc2F)n(C)c1=O	inconclusive: 31.6 µM [inhibitor, single point]	
CC(Nc1ccc(Br)cn1)c1cc(Cl)ccc1O (stereo not drawn)	inconclusive: 20 µM [inhibitor, partial curve]	
